# Experimental data from PubChem BioAssay AID686971 (National Center for Advancing Translational Sciences (NCATS), 2013).
# The campaign covered roughly 360,000 compounds. About 7,500 (2.1%) were called active. Inconclusive means that the source gave no clear call. Such entries were picked first, then a sample of the others. Calls follow the shape of the dose curve; as a rule, active = well fitted cell-killing curve with a large enough effect; inconclusive = small, poorly fitted or top-dose-only effect, or effect the other way, or another doubt; inactive = no such curve, though single readings can be large or run the other way. No potency is given beside an inconclusive call; the fits are too rough.
# Assay: qHTS for induction of synthetic lethality in tumor cells producing 2HG: qHTS for the HT-1080-IDH1KD cell line;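 as to activity, negative = toxicity: 0% = DMSO wells and -100% = cell-free medium wells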
# Conditions: HT-1080 IDH1 knockdown viability, ATP luminescence, 48 h; activity, negative = toxicity: at 46.1 µM (top of the series) unless noted
# Method in brief: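 Viability of IDH1-knockdown HT-1080 fibrosarcoma cells was assessed by CellTiter-Glo after 48 h at 37 °C with titrated compound; concentration-effect curves were classified by fit quality and response size.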
# Potency is read from the fitted curve at half-maximal effect; tags tell the direction and shape of the fitted curve.
SMILES,"activity, negative = toxicity",Potency
COc1ccc(NC(=O)Nc2cccc(NC(C)=O)c2)c(OC)c1,inactive: 19.3%,–
Cc1ccc2[nH]c(C)c(/C=C/c3cc[n+](C)cc3)c2c1,–,"inconclusive [cytotoxic, partial curve, poor fit]"
CC(=O)n1cc([C@@H]2C=C(C(=O)Nc3ccccc3)O[C@H](OCCCCO)C2)c2ccccc21,–,"inconclusive [cytotoxic, partial curve]"
O=C(NCCc1cccnc1)c1cc(COc2ccc(F)cc2F)on1,–,"inconclusive [cytotoxic, single point]"
C=CCn1c(SCC(=O)Nc2cc(C)c(Cl)cc2OC)nnc1-c1ccco1,–,"inconclusive [cytotoxic, single point]"
C(=C\c1ccccc1)/CN1CCN(C(c2ccccc2)c2nnnn2-c2ccc3c(c2)OCCO3)CC1 (configuration not stated),–,"inconclusive [cytotoxic, single point]"
COc1ccccc1Oc1ccc(-c2cnc3ccccc3n2)cc1[N+](=O)[O-],–,"inconclusive [cytotoxic, full curve]"
O=C(N/N=C/c1cc(Cl)ccc1O)c1cccnc1,–,"inconclusive [cytotoxic, partial curve]"
O=C(OCc1nnc(-c2ccccc2)o1)c1cc(S(=O)(=O)N2CCOCC2)c(Cl)cc1Cl,–,"inconclusive [cytotoxic, single point]"
CN(C)C(=O)CSc1nc2ccc(C(=O)c3ccccc3)cc2[nH]1,–,"inconclusive [cytotoxic, single point]"
O=C(O)c1ccccc1S(=O)(=O)NCC(O)COc1ccc(Br)cc1 (configuration not stated),inactive: 0.33%,–
CCCc1[nH]nc2c1C(/C(C)=C/c1ccccc1)C(C#N)=C(N)O2 (configuration not stated),inactive: -0.225% [at 9.24 µM],–
O=C(COc1ccccc1F)NC1CC1,–,"inconclusive [rising, single point]"
C[C@H](NC(=O)c1nc[nH]c1C(=O)NCc1ccc(CNC(=O)OC(C)(C)C)cc1)c1ccccc1,–,"inconclusive [cytotoxic, single point]"
O=C(CN1C(=O)S/C(=C\c2ccc(Cl)cc2)C1=O)NNC(=O)c1ccccc1O,inconclusive: -30% [cytotoxic],–
CC(C)c1cc(Cn2c3ccccc3c(=O)n2C(C)Cn2cc(CCc3ccccc3)nn2)on1 (configuration not stated),inactive: 9.48%,–
COc1ccc(N2CCN(C(=O)c3ccc(CNS(=O)(=O)c4cccc(OC)c4)cc3)CC2)cc1,–,"inconclusive [cytotoxic, single point]"
Cc1ccc(NC(=O)CC(=O)c2ccc([N+](=O)[O-])cc2)cc1S(=O)(=O)Nc1cccc(Cl)c1,–,"inconclusive [cytotoxic, single point]"
O=C(CN1CCC(C(=O)c2ccc3c(c2)OCCO3)CC1)NC1CCCC1,–,"inconclusive [cytotoxic, partial curve]"
COc1ccc(CNS(=O)(=O)c2cc(CN3C(=O)c4cccnc4C3=O)ccc2OC)cc1,inactive: 10.7%,–
CCC(C)Sc1cccc(-c2nc3cc(C)ccn3c2NC2CCCCC2)c1 (configuration not stated),–,active: 18.4 µM
Cc1cc(C)cc(NC(=S)Nc2ccc(Cl)c(Cl)c2)c1,–,"inconclusive [cytotoxic, single point]"
COc1ccc(-c2csc(Nc3ccc(O)cc3)n2)cc1,–,active: 6.51 µM
O=C(/C=C/c1cccc(C(F)(F)F)c1)Nc1cccc(C(F)(F)F)c1,–,active: 7.94 µM

SMILES,"activity, negative = toxicity",Potency
CCOC(=O)c1csc(NNC=O)n1,inactive: -1.95%,–
CC(Sc1nc2c(c(=O)[nH]1)CCCC2)C(=O)Nc1ccc(S(N)(=O)=O)cc1 (configuration not stated),inactive: -1.46%,–
O=C(Cc1ncc(C(F)(F)F)cc1Cl)NCc1ccco1,inactive: 21.8%,–
Cn1c(-c2ccc3c(c2)OCO3)cnc1NCc1cccc(Cl)c1,–,"inconclusive [cytotoxic, single point]"
O=C(/C=C/[C@H]1O[C@@H](n2cnc3c(NC(=O)c4ccccc4)ncnc32)[C@H](O)[C@@H]1O)NCc1cccc2ccccc12,inactive: 0%,–
COCc1nnc(NC(=O)CCS(=O)(=O)c2ccccc2)s1,–,"inconclusive [cytotoxic, single point]"
Clc1cccc(-c2nc(NCCN3CCOCC3)c3ccccc3n2)c1,–,"inconclusive [cytotoxic, single point]"
Clc1ccc(OCc2nn3c(C4CCCCC4)nnc3s2)cc1,–,"inconclusive [cytotoxic, single point]"
COc1ccc(CCC(=O)NCC(c2ccco2)N2CCc3ccccc32)cc1 (configuration not stated),inactive: -8.59%,–
CC(C)c1ccc(OCC(O)CN2CCN(c3ccccc3)CC2)cc1 (configuration not stated),–,active: 16.4 µM
COc1ccccc1-c1csc(C(NC(C)=O)c2cccc(F)c2)n1 (configuration not stated),inactive: -2.52%,–
CCOC(=O)c1c(-c2ccc(C)o2)csc1NC(=O)CSc1nncs1,–,"inconclusive [cytotoxic, single point]"
CC(=NNC(=O)c1cc(C)nc2ccccc12)c1ccc(N2CCOCC2)cc1,–,"inconclusive [cytotoxic, single point]"
CC(C)(C)c1ccc(CN(Cc2ccco2)Cc2nnnn2C2CCCC2)cc1,–,"inconclusive [cytotoxic, single point]"
Cc1ccc(-c2ccc3c(c2)O[C@H](CN(C)C(=O)Nc2ccc(C(F)(F)F)cc2)[C@H](C)CN([C@H](C)CO)S3(=O)=O)cc1,–,"inconclusive [cytotoxic, single point]"
CC1(C)CC(=O)c2cc(OCC(=O)NCCCN3CCN(c4ccc(F)cc4)CC3)ccc2O1,–,"inconclusive [cytotoxic, single point]"
CCC(=O)Nc1ccc(C(=O)Nc2ccc(OC)cc2[N+](=O)[O-])cc1,–,"inconclusive [cytotoxic, single point]"
COc1ccc(C(=O)NC(=S)NNC(=O)Cc2cccs2)cc1,inactive: -28.3%,–
O=C1/C(=C/c2ccncc2)CCc2ccccc21,–,"inconclusive [cytotoxic, single point]"
c1ccc(CCNc2ncnc3ccccc23)cc1,–,active: 2.06 µM
CCCCn1c(SCC(=O)Nc2cc(NC(=O)c3ccco3)ccc2C)nc2ccccc2c1=O,–,active: 11.2 µM
C#CCN1C=CC(=O)[C@@H](OC(=O)NCCC)[C@H]1c1ccccc1Br,inactive: 3.1%,–
CCn1c(-c2ccccc2)c[nH]c1=S,inactive: 3.79%,–
OC(c1ccc(OCc2ccccc2)cc1)c1nnc(-c2ccccc2)o1 (configuration not stated),inactive: -26.8%,–

SMILES,"activity, negative = toxicity",Potency
Cc1ccc(C(=O)N/N=C\C=C\c2ccc(Br)cc2)cn1,inactive: -0.801%,–
N#Cc1c(Cl)nsc1NC(=O)c1ccccc1,–,active: 13 µM
CN(C)CCNc1ccc(CO)c2sc3ccc(O)cc3c(=O)c12,–,active: 16.4 µM
Cc1ccc2nc(-c3ccc(C#N)cc3)c(Cc3cccc(Cl)c3)n2c1,–,active: 25.9 µM
CC(=O)Nc1ccc(S(=O)(=O)NCCC(=O)NCc2ccncc2)cc1,inactive: 4.35%,–
COc1ccc(CCNS(=O)(=O)c2ccc3c(c2)NC(=O)CCS3)cc1OC,–,"inconclusive [cytotoxic, single point]"
CC(C)Nc1nc(C#N)nc(NC(C)C)n1,–,"inconclusive [cytotoxic, single point]"
Cc1nn(CCc2n[nH]c(=S)n2C2CCCCC2)c(C)c1Br,–,"inconclusive [cytotoxic, single point]"
O=C1C=C(NCc2ccc(Cl)c(Cl)c2)CC1,–,"inconclusive [cytotoxic, single point]"
COC(=O)c1ccc(NC(=O)c2ccc(CN3CCOCC3)cc2)cc1,–,"inconclusive [cytotoxic, single point]"
CC(C)n1cnc2c(Nc3ccc(F)c(Cl)c3)nc(NCCO)nc21,–,"inconclusive [cytotoxic, single point]"
CCN(CC)CCOC(=O)c1c(C)oc2ccc(OC)cc12,–,"inconclusive [cytotoxic, partial curve, poor fit]"
CN(C)CCCN(C(=O)c1cc2cc([N+](=O)[O-])ccc2s1)c1nc2cc3c(cc2s1)OCCO3,–,"inconclusive [cytotoxic, single point]"
COc1cc(NS(=O)(=O)c2ccc(NC(=S)NC(=O)c3ccc(F)c(F)c3)cc2)nc(OC)n1,inactive: 8.78%,–
CCCn1nc(C(=O)N(C)CC(=O)Nc2ccc(OCC)c(OCC)c2)c2ccccc2c1=O,inactive: 0.877%,–
CNCc1ccccc1Sc1cc(O)ccc1O,–,"inconclusive [cytotoxic, single point]"
Cc1c(C)n(CCCN(C)C)c2ncnc(NC3CCCCC3)c12,–,"inconclusive [cytotoxic, single point]"
O=C(Nc1cccc(S(=O)(=O)N2CCCCC2)c1)c1ccc2ncsc2c1,inactive: -9.86%,–
O=C(Nc1cccc(Cl)c1Cl)C1CC(=O)N(c2ccc(Br)cc2)C1 (configuration not stated),–,"inconclusive [cytotoxic, single point]"
CCN(CC)CCCCNc1ncc2cc(-c3cc(OC)cc(OC)c3)c(NC(=O)NC(C)(C)C)nc2n1,–,active: 9.2 µM
Cc1ccc(Cn2nc(C)cc2C(=O)Nc2ccc(Cl)cc2)cc1,–,"inconclusive [cytotoxic, single point]"
O=C(C[n+]1cc(Br)cc2ccccc21)c1ccc(Br)cc1,inactive: -16.7%,–
CCOc1cc(Br)c(CN2C(=O)NC3(CCCCCC3)C2=O)cc1OCC,–,"inconclusive [cytotoxic, single point]"
Cc1c2ccccc2c(C)c2c1ccc1ccccc12,–,"inconclusive [cytotoxic, single point]"
